The results in this text go back to a collection of fitness landscapes (doi:10.1126/science.1257360).

This is one part of the list. A value given as a limit tells only on which side of the number the result lay.

B1: PhoQ; a variant is named by its letters at X, in order, P23837 (parent)
chain: MKKLLRLFFPLSLRVRFLLATAAVVLVLSLAYGMVALIGYSVSFDKTTFRLLRGESNLFYTLAKWENNKLHVELPENIDKQSPTMTLIYDENGQLLWAQRDVPWLMKMIQPDWLKSNGFHEIEADVNDTSLLLSGDHSIQQQLQEVREDDDDAEMTHSVAVNVYPATSRMPKLTIVVVDTIPVELKSSYMVWSWFIYVLSANLLLVIPLLWVAAWWSLRPIEALAKEVRELEEHNRELLNPATTRELTSLVRNLNRLLKSERERYDKYRTTLTDLTHSLKTPLXXLQXXLRSLRSEKMSVSDAEPVMLEQISRISQQIGYYLHRASMRGGTLLSRELHPVAPLLDNLTSALNKVYQRKGVNISLDISPEISFVGEQNDFVEVMGNVLDNACKYCLEFVEISARQTDEHLYIVVEDDGPGIPLSKREVIFDRGQRVDTLRPGQGVGLAVAREITEQYEGKIVAGESMLGGARMEVIFGRQHSAPKDE

In the assay the parent is B1. The experiment in a line: enrichment ratio after two sorts for PhoP signalling (ratio (wild type AVST 3.29)); higher = more functional. The note with it: with PhoP (E. coli).
Turning to SGMC, the enrichment ratio was determined as 12.8.

For the variant MFLH, the enrichment ratio is at most 0.25.

On to QNEW, for which the enrichment ratio is at most 0.25.

For VSTT, the enrichment ratio was at most 0.25.

With SIVG, the enrichment ratio was determined as 9.05.

For HPSH, the enrichment ratio is at most 0.25.

VQQF: the enrichment ratio is at most 0.25.

For QAEW, the enrichment ratio was at most 0.25.

For the variant PMHH, the enrichment ratio was at most 0.25.

Take HHVL: the enrichment ratio is at most 0.25.

In the case of TPPA, the enrichment ratio is at most 0.25.

In the case of TLPI, the enrichment ratio is at most 0.25.

Take VLRI: the enrichment ratio is at most 0.25.

In the case of FDAC, the enrichment ratio was at most 0.25.

TGFS: the enrichment ratio is 1.93.

Turning to TPRY, the enrichment ratio was at most 0.25.

For the variant SRSM, the enrichment ratio was 0.977.

For MLYK, the enrichment ratio was at most 0.25.

FKTI: the enrichment ratio was at most 0.25.

For the variant KSCM, the enrichment ratio is at most 0.25.

In the case of TTYN, the enrichment ratio was 12.5.

Take PVMC: the enrichment ratio was at most 0.25.

Turning to RRHA, the enrichment ratio was at most 0.25.

Consider WNGL, for which the enrichment ratio is at most 0.25.

Regarding GFVM, the enrichment ratio was at most 0.25.

Regarding CPSS, the enrichment ratio was at most 0.25.

Regarding REVS, the enrichment ratio is at most 0.25.

In the case of VASV, the enrichment ratio was found to be 0.45.

As for VHAN, the enrichment ratio is at most 0.25.

As to IGSK, the enrichment ratio was at most 0.25.

For EQHT, the enrichment ratio is at most 0.25.

On to AGAT, for which the enrichment ratio was determined as 11.3.

With AAVH, the enrichment ratio amounted to 0.944.

For the variant NMRR, the enrichment ratio was at most 0.25.

Regarding GCMQ, the enrichment ratio was 6.31.

In the case of QGDH, the enrichment ratio is at most 0.25.

Take HKRI: the enrichment ratio is at most 0.25.

Take YWYR: the enrichment ratio is at most 0.25.

In the case of NWLI, the enrichment ratio was at most 0.25.

For YNDH, the enrichment ratio is at most 0.25.

As to NHHR, the enrichment ratio was at most 0.25.

For the variant RQVV, the enrichment ratio is at most 0.25.

HLHI: the enrichment ratio was at most 0.25.

As for IITL, the enrichment ratio is at most 0.25.

For DGTI, the enrichment ratio is at most 0.25.

As to EPPY, the enrichment ratio is at most 0.25.

SRCW: the enrichment ratio is at most 0.25.

For the variant TKII, the enrichment ratio is 5.85.

Take YGKF: the enrichment ratio was at most 0.25.

For the variant QICV, the enrichment ratio was at most 0.25.

As to GRDQ, the enrichment ratio was at most 0.25.

For the variant MYVG, the enrichment ratio was at most 0.25.

In the case of NQSA, the enrichment ratio is at most 0.25.

In the case of DYYC, the enrichment ratio was at most 0.25.

For the variant NGLE, the enrichment ratio is at most 0.25.

Consider YNFT, for which the enrichment ratio is at most 0.25.

For IDNK, the enrichment ratio was at most 0.25.

Take IQQP: the enrichment ratio is at most 0.25.

For QCML, the enrichment ratio is at most 0.25.

For the variant ELGE, the enrichment ratio was at most 0.25.

On to DVLF, for which the enrichment ratio was at most 0.25.

Consider KSSM, for which the enrichment ratio is at most 0.25.

On to AHKS, for which the enrichment ratio was at most 0.25.

Take WQYM: the enrichment ratio is at most 0.25.

Regarding WYKQ, the enrichment ratio is at most 0.25.

NHDF: the enrichment ratio is at most 0.25.

In the case of IKKE, the enrichment ratio was at most 0.25.

On to DAMY, for which the enrichment ratio is at most 0.25.

As to FNKV, the enrichment ratio was at most 0.25.

Turning to RMRH, the enrichment ratio is at most 0.25.

Regarding ERVA, the enrichment ratio is at most 0.25.

For the variant VKKV, the enrichment ratio was at most 0.25.

NYWT: the enrichment ratio is at most 0.25.

On to QAKR, for which the enrichment ratio is at most 0.25.

On to GTSH, for which the enrichment ratio was 0.482.

Turning to ISYE, the enrichment ratio is at most 0.25.

For the variant EPWL, the enrichment ratio was at most 0.25.

Regarding SWGL, the enrichment ratio was at most 0.25.

VWAV: the enrichment ratio is at most 0.25.

With QGIV, the enrichment ratio was at most 0.25.

MSLR: the enrichment ratio was at most 0.25.

With LAAM, the enrichment ratio is at most 0.25.

Take SNYP: the enrichment ratio was 0.274.

With WAIS, the enrichment ratio was at most 0.25.

For the variant WPPS, the enrichment ratio is at most 0.25.

GGYR: the enrichment ratio was at most 0.25.

As to GNYD, the enrichment ratio was at most 0.25.

For the variant WKTT, the enrichment ratio is at most 0.25.

For the variant WSYF, the enrichment ratio is at most 0.25.

LDRA: the enrichment ratio was at most 0.25.

In the case of EKNV, the enrichment ratio was at most 0.25.

Consider LTVL, for which the enrichment ratio is at most 0.25.

Turning to QCDL, the enrichment ratio was 3.98.

For the variant SIAP, the enrichment ratio is at most 0.25.

Take DPYK: the enrichment ratio is at most 0.25.

In the case of YFIW, the enrichment ratio was at most 0.25.

As for QNRP, the enrichment ratio is at most 0.25.

As for PCYV, the enrichment ratio was at most 0.25.

Take GPIR: the enrichment ratio was at most 0.25.

For FVIN, the enrichment ratio is at most 0.25.

For the variant FYGI, the enrichment ratio was at most 0.25.

Take GMSM: the enrichment ratio was 5.43.

PEES: the enrichment ratio is at most 0.25.

Take AYDS: the enrichment ratio is at most 0.25.

As to TIHM, the enrichment ratio was at most 0.25.

For the variant LDQC, the enrichment ratio is at most 0.25.

On to MLDN, for which the enrichment ratio is at most 0.25.

Consider LYVP, for which the enrichment ratio was at most 0.25.

YGGC: the enrichment ratio was at most 0.25.

On to MPNF, for which the enrichment ratio is at most 0.25.

As to RQNI, the enrichment ratio is at most 0.25.

For ANCP, the enrichment ratio is at most 0.25.

In the case of MDEH, the enrichment ratio is at most 0.25.

Turning to DWGQ, the enrichment ratio was at most 0.25.

Take RLPH: the enrichment ratio is at most 0.25.

Turning to RTMH, the enrichment ratio is at most 0.25.

Turning to DKAH, the enrichment ratio is at most 0.25.

Take HLCR: the enrichment ratio was at most 0.25.

Consider RYDI, for which the enrichment ratio is at most 0.25.

Consider HCGW, for which the enrichment ratio is at most 0.25.

MMTT: the enrichment ratio is at most 0.25.

On to DLDL, for which the enrichment ratio is at most 0.25.

Take VTND: the enrichment ratio was at most 0.25.

Regarding WYPD, the enrichment ratio is at most 0.25.

In the case of QGVL, the enrichment ratio was determined as 2.7.

Take FWAS: the enrichment ratio was at most 0.25.

Take TTIV: the enrichment ratio came to 0.549.

Take TYHS: the enrichment ratio was at most 0.25.

As for EPPA, the enrichment ratio was at most 0.25.

Turning to GQPW, the enrichment ratio was at most 0.25.

AYLN: the enrichment ratio is at most 0.25.

For the variant GKHM, the enrichment ratio is at most 0.25.

For QRLT, the enrichment ratio was at most 0.25.

As to VSEN, the enrichment ratio was at most 0.25.

Take QAWM: the enrichment ratio turned out to be 10.8.

Take QNRN: the enrichment ratio was at most 0.25.

With NYFW, the enrichment ratio was at most 0.25.

Consider ILEY, for which the enrichment ratio was at most 0.25.

In the case of QHVR, the enrichment ratio is at most 0.25.

As for KAQP, the enrichment ratio is at most 0.25.

In the case of PDGG, the enrichment ratio is at most 0.25.

Regarding EADW, the enrichment ratio is at most 0.25.

On to DDAP, for which the enrichment ratio was at most 0.25.

In the case of WFGK, the enrichment ratio was at most 0.25.

On to RREH, for which the enrichment ratio was at most 0.25.

Turning to IPSP, the enrichment ratio is at most 0.25.

Consider FTMF, for which the enrichment ratio worked out at 9.72.

As to SADN, the enrichment ratio was at most 0.25.

As to TVVF, the enrichment ratio is at most 0.25.

With MQGS, the enrichment ratio is at most 0.25.

Consider WYHQ, for which the enrichment ratio was at most 0.25.

As to SLVE, the enrichment ratio is at most 0.25.

In the case of VPSM, the enrichment ratio is at most 0.25.
